Over roughly 33,000 sequences, “E-score (-0.5 to 0.5)” has its median near -0.036; the highest 2% begin near 0.37. The list shows a part of the results.
These sequences were tested against T1, Yer064c (UniProt P40041) (assay: PBM E-score (8-mer binding enrichment) (E-score (-0.5 to 0.5)); higher = stronger / more preferred TF binding; most listed sequences are background and not binding sites). Conditions: protein concentration: 200 nM; construct: GST-full length.
T1 sequence: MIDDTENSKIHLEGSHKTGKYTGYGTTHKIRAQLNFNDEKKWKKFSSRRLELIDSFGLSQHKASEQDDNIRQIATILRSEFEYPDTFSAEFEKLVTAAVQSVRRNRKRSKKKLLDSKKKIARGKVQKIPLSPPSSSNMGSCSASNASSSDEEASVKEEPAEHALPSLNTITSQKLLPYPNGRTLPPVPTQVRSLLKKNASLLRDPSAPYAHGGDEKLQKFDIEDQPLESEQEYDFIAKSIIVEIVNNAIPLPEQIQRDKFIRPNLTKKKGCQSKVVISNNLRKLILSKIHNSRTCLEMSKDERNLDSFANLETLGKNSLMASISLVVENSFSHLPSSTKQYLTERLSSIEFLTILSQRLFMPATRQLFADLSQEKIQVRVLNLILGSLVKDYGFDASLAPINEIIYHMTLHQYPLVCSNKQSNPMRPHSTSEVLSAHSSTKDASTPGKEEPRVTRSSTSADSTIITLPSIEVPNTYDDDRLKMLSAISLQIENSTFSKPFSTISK
Protocol: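 Universal 'all 10-mer' protein binding microarrays (Agilent AMADID 015681) probed with GST-tagged S. cerevisiae TFs (full-length or DBD) made by in vitro transcription/translation (PURExpress), about 100-200 nM. Bound TF was detected with fluorescent anti-GST. Each ungapped 8-mer (which stands for itself and its reverse complement) is scored by the PBM enrichment score (E-score), a modified Wilcoxon-Mann-Whitney statistic from -0.5 to +0.5, computed with the Universal PBM Analysis Suite. Scale: above 0.35 generally sequence-specific binding.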
In the case of GGTTACCA, the “PBM E-score” value is reported as -0.0717.
In the case of TCCATGAA, the “PBM E-score” value is reported as 0.141.
With CGAGCAAC the “PBM E-score” value was -0.076.
For GTAGCGGA, the “PBM E-score” value was 0.0493.
With ATTGGCAA the “PBM E-score” value was 0.0157.
In the case of CTGGTCGC, the “PBM E-score” value is reported as -0.174.
With CGTCGGGA the “PBM E-score” value was -0.118.
In the case of ACGCGGAT, the “PBM E-score” value is reported as -0.0599.
In the case of ATTTCCCG, the “PBM E-score” value is reported as -0.101.
For AAAGCGCT, the “PBM E-score” value was -0.0519.
With ATCACGCA the “PBM E-score” value was 0.254.
TAGAGGAA was tested, and the “PBM E-score” value was -0.079.
For AGAGTGTA, the “PBM E-score” value was -0.0869.
With AAAGGTCT the “PBM E-score” value was -0.0473.
In the case of CCTGTTAA, the “PBM E-score” value is reported as 0.00635.
ATAGAACA was tested, and the “PBM E-score” value was -0.0734.
In the case of CCAATCAG, the “PBM E-score” value is reported as 0.0381.
For AGCGGCAG, the “PBM E-score” value was -0.272.
For CGTCACTA, the “PBM E-score” value was 0.0406.
For ATGTACTA, the “PBM E-score” value was -0.00272.
For ACTAAGGC, the “PBM E-score” value was 0.153.
With CCGTGTTA the “PBM E-score” value was -0.00223.
ACCTTTAG was tested, and the “PBM E-score” value was -0.0755.
For GGGAGGTA, the “PBM E-score” value was -0.19.
In the case of TCAGAGCA, the “PBM E-score” value is reported as -0.0716.
With AAATTCCA the “PBM E-score” value was -0.013.
GCACGGCA was tested, and the “PBM E-score” value was -0.121.
In the case of ATATGATA, the “PBM E-score” value is reported as 0.083.
With ACGCTGTG the “PBM E-score” value was -0.0445.
With ACAACAAC the “PBM E-score” value was 0.204.
With ACTCAAAT the “PBM E-score” value was 0.294.
In the case of GACTTAAC, the “PBM E-score” value is reported as 0.296.
AATTAATA was tested, and the “PBM E-score” value was 0.179.
GAGTGCGC was tested, and the “PBM E-score” value was -0.143.
For CGCTCCAG, the “PBM E-score” value was -0.143.
In the case of ATAATATA, the “PBM E-score” value is reported as 0.0466.
ATCACGTG was tested, and the “PBM E-score” value was 0.0887.
With AATCAAGC the “PBM E-score” value was 0.288.
In the case of AGACACCC, the “PBM E-score” value is reported as 0.236.
With CAACTTAC the “PBM E-score” value was -0.0378.
AGGTGTCG was tested, and the “PBM E-score” value was -0.0844.
For CTGGCCCA, the “PBM E-score” value was -0.271.
CATCAGGA was tested, and the “PBM E-score” value was -0.0161.
AGCCGCTA was tested, and the “PBM E-score” value was -0.151.
For CGCATGAC, the “PBM E-score” value was 0.274.
TCGTGCAA was tested, and the “PBM E-score” value was 0.235.
With GAGGGTGC the “PBM E-score” value was -0.281.
With AAGTTGAT the “PBM E-score” value was 0.0569.
With CCGGCTTC the “PBM E-score” value was -0.282.
For CATAATCA, the “PBM E-score” value was 0.413.
With ACTGATGC the “PBM E-score” value was -0.0721.
With AGTGTCTG the “PBM E-score” value was -0.00225.
In the case of CCTCTCTC, the “PBM E-score” value is reported as -0.204.
In the case of ACCCGGTC, the “PBM E-score” value is reported as -0.194.
With ACTTATTC the “PBM E-score” value was 0.13.
In the case of AAGCTTCG, the “PBM E-score” value is reported as -0.225.
For CGTGCGAC, the “PBM E-score” value was 0.105.
TAGGACCA was tested, and the “PBM E-score” value was -0.246.
With CATCCAAA the “PBM E-score” value was 0.0387.
In the case of ATTATATG, the “PBM E-score” value is reported as 0.204.
With AGTGGCAG the “PBM E-score” value was -0.194.
For CACTTCGG, the “PBM E-score” value was -0.131.
With GGTTCTCA the “PBM E-score” value was 0.0795.
With CCCCGTAG the “PBM E-score” value was -0.0708.
CTCAATGA was tested, and the “PBM E-score” value was 0.234.
AGCAAAGC was tested, and the “PBM E-score” value was -0.147.
TAACATTA was tested, and the “PBM E-score” value was -0.00272.
TGCGAAAA was tested, and the “PBM E-score” value was 0.0794.
CCTCACGA was tested, and the “PBM E-score” value was -0.0431.
For GTCCGGGA, the “PBM E-score” value was 0.00941.
ATAATTCC was tested, and the “PBM E-score” value was -0.142.
In the case of CCAATATC, the “PBM E-score” value is reported as -0.156.
In the case of ATCTCACA, the “PBM E-score” value is reported as 0.231.
With ACCTACCC the “PBM E-score” value was -0.108.
With AAGAGAGG the “PBM E-score” value was -0.104.
GAAAAGTC was tested, and the “PBM E-score” value was 0.183.
With AGAATGCT the “PBM E-score” value was -0.194.
In the case of AAATGTTG, the “PBM E-score” value is reported as -0.325.
For TACATGGA, the “PBM E-score” value was -0.0643.
In the case of CCAGCCAC, the “PBM E-score” value is reported as -0.0125.
With GAGCCTAC the “PBM E-score” value was 0.00047.
ATGAAACG was tested, and the “PBM E-score” value was -0.221.
In the case of CCCCGTAA, the “PBM E-score” value is reported as -0.0314.
For ATTATTGA, the “PBM E-score” value was 0.0793.
AGGGTTGC was tested, and the “PBM E-score” value was -0.203.
With CAAGCGCC the “PBM E-score” value was -0.245.

Source: the supplement of paper PMC3334620
